Test results as given in the RNAGym collection of RNA variant scans (doi:10.7554/elife.90254).
The source gives no read counts; variants with many changes may rest on few reads.

B1: OR4K15 (parent)
chain: GUUAACGGUCAUAGGCCAUGGAAACUAGGAGCACCAUUUCGCUGCCAGUGAAGAAAUGAACAAAGAAAAUCUGGGCCAGGCAGGCAUCAAAAGAAAUAGUCUUGCGCUCAACCAGAAAGUCUGUAAUCAUUUUAAGGGUA

Variants of: B1
Experiment: self-cleavage, relative activity (ratio to wild type); higher = more cleavage; in vitro, sequencing; the parent is a self-cleaving ribozyme

Variant | self-cleavage
GUCAACGGUCAUAGGCCAUGGGAACUAGGAGCACCAUUUCGCUGCCAGUGAAGAAAUGAACAAAGAAAAUCUGGGCCAGGCAGGCAUCAAAAGAAAUAGUCUUGCGCUCAACCAGAAAGUCCGUAAUCAUCUUAAGGGUA [U3C A22G U122C U131C] | 0.75
GUUAACGGUCAUAGGCCAUGGAAACUAGGAGCACCAUUUCGCUGCCAGUGAAGAAAUGAACAAGGAAAAUCUGGGCCAGGCUGGCAUCAAAAGAGAUAGUCUUGCGCUCAACCAGAAAGUCCGUAAUCAUUUUAAGGGUA [A64G A82U A95G U122C] | 0.17
GUUAACGGUCGUAGGCCAUGGAAACUAGGAGCACCAUUUCGCUGCCAGUGGAGAAAUGAACAAAGAAAAUCUGGGCCAGGCAGGCAUCAAAAGAAAUAGUCCUGCGCUCAACCAGAAAGUCUGUAAUCAUUUUAAGGGUA [A11G A51G U102C] | 1.51
GUUAACGGCCAUAGGCCAUGGAAACUAGGAGCACCAUUUCGCUGCCAGUGAAGAAAUGAACAAAGAAAAUCUGGGCCAGGCAGGCAUCAGAAGAAAUAGUCUUGCGCUCAACCAGAAAGUCUGUAAUCGCUUUAAGGGUA [U9C A90G A129G U130C] | 0.8
GUUAACGGUCAUAGGCCAUGGAAACUAGGAGCACCAUUUCGCUGCCAGGGAAGAAAUGAACAAAGAAAAUCUGGGCCAGGCAGGCGUCAAAAGAAAUAGUCUUGCGCACAACCAGAAAGUCUGUAAUCAUUUUAAGGGUA [U49G A86G U108A] | 0.01
GUUAACGGUCAUAGGCCAUGGAAACUAGGAGCACCACUCCGCUGCCAGUGAGGAAACGAACAAAGAAGAUCUGGGCCAGGCAGGCAUCAAAAGAAAUAGUCUUGCGCUCAACCAGAAAGUCUGUAAUCAUUUUAAGGGUA [U37C U39C A52G U57C A68G] | 0.75
GUUAACGGUCAUAGGCCAUGGAAACUAGGAGCACCAUUUCGUUGCCAGUGAAGAAAUGAACAAAGAAAAUCUGAGCCAGGCAGGCAUCAAAAGAGAUAGUCUUGCGCUCAACCAGAAGGUCUGUAAUCAUUUUAAGGGUA [C42U G74A A95G A118G] | 0.16
GUUGACGGUCAUGGGCCAUGGAAACUAGGAGCACCAUUUCGCUGCCAGUGAAGAAAUGAACAAAGAAAAUCUGGGCCAGGCAGGCAUCAAAAGGAGUAGUCUUGCGCUCAACCAGAAAGGCUGUAGUCAUUUUAAGGGUA [A4G A13G A94G A96G U120G A126G] | 1.69
GUUGACGGUCAUAGGCCAUGGAAACUAGGAGCACCAUUUCGCUGCCAGUGAAGAAAUGAACAAAGAAAAUCUGGGCCAGGCAGGCGUCAAAAGGAAUAGUCUUGCGCUCAACCAGAAAGUCUGUAAUCAUUUUAAGGGUA [A4G A86G A94G] | 1
GUUAACGGUCAUAGGCCAUGGAAACUAGGAGCACCAUUUCGCUGCCAGUGAAGAAAUGGACAAAGAAAAUCUGGGCCAGGCGGGCAUCAAAAGAAAUAGUCUUGCGCUCAACCAGAAGGUCUGUAGUCAUUUUAAGGGUA [A59G A82G A118G A126G] | 0.23
GUUAACGGUCAUAGGCCAUGGAGACUAGGAGCACCAUUUCGCUGCCAGUGAAGAAAUGAACAAAGAAAAUCUGGGCCAGCCAGGCAUCAAAAGAGAUAGUCUUGCGCUCAACCAGAGAGUCUGUAAUCAUUUUAAGGGUA [A23G G80C A95G A117G] | 0.05
GUUAACGGUCAUAGGCCAUGGUAACUAGGAGCACCAUUUCGCUGCCAGUGAAGAAAUGAACAAAGAAAAUCUGGGCCGGGCAGGCAUCAAAAGAAAUAGUCUAGCGCUCAACCAGAAAGUCUGUAAUCAUUUUAAGGGUA [A22U A78G U103A] | 0.06
GUUAACGGUCAUAGGCCAUGGGAACUAGGAGCACCAUUUCGCUGCCAGUGAAGAAAUGAACAAGGAAAAUCUGGGCCAGGCAGGCAUCAAAAGAAAUAGUCUUGCGCUCAACCAGAAAGUCUGUAAUCGUUUUAAGGGUA [A22G A64G A129G] | 1.7
GUUAACGGUCAUAGGCCAAGGAAACUAGGAGCACCAUUUCGCUGCCAGUGAAGAAAUGAACAAAGAAAAUCUGGGCCAGGCAGGCAUCAAAAGAAAUAGUCUUGCGCUCAACCAGGAAGUCUGUAAUCAUUCUAAGGGUA [U19A A116G U132C] | 0.91
GUUAACGGUCAUGGGCCAUGGGAACUAGGAGCACCAUUUCGCUGCCAGCGAAGAAAUGAACAAAGAAAAUCCGGGCCAGGCAGGCAUCAAAAGAAAUAGUCUAGCGCUCAACCUGAAAGUCUAUAAUCAUUUUAAGGGUA [A13G A22G U49C U72C U103A A114U G123A] | 0
GUUAACGGUCAUAGGCCAUGGGAACUAGGAGCACCAUUCCGCUGCCAGUGAAGAAAUGAACAAAGAAAAUCUGGGCCAGGCAGGCAUCAGAAGAAAUAGUCUUGCGCUCAACCAGAAAGUCUGUAAUCAUUUUAAGGGUA [A22G U39C A90G] | 0.3
GUUAACGGUCAUAGGCCAUGGAAGCUAGGAGCACCAUUUCGCUGCCAGUGAAGAAAUGGACAAAGAAGAUCUGGGCCAGGCAGGCAUCAAAAGAAAUAGUCUUGCGCUCAACCAGAAAGUCUGUAAUCAUCUUAAGGGUA [A24G A59G A68G U131C] | 0.91
GUUAACGGUCAUAGGCCAUGGAAACUAGGAGCACCAUUUCGCUGCCAGUGAAGAAAUGAACAAAGACAAUCUGGGCCAGGCAGGCAUCAAAAGAAAUAGUCUUGCGCUCAACCAGGAAGUCUGUAAUCAUUUAAAGGGUA [A67C A116G U133A] | 0.91
GUUAACGGUCAUAGGCCAUGGUAACUAGGAGCACCAUUUCGCUGCCAGUGAAGAAAUGAACAAAGAAAAUCAGGGCCAGGCAGGCAUCAAAAGAAAUAGUCUUGCGCUCAACCAGAAAGUCUGUAAUCAUCUUAAGGGUA [A22U U72A U131C] | 0.27
GUUAACGGUCAUAGGCCAUGGAAACUAGGAGCACCAUUUCGCUGCCAGUGAAGAAAUGAACAAAGAUAACCUGGGCCAGGCAGGCAUCAAAAGAAAUAGUCUUGCGCACAACCAGAAAGUCUGUAAUCAUUUUAAGGGUA [A67U U70C U108A] | 0.03
